In PubChem BioAssay AID588342 (National Center for Advancing Translational Sciences (NCATS), 2011):
In all, about 360,000 compounds went through this assay and about 25,000 (6.9%) were called active. Inconclusive means that the source gave no clear call. Such entries were picked first, then a sample of the others. Calls come from the whole dose curve; as a rule, active = well fitted inhibition curve with a large enough effect; inconclusive = small, poorly fitted or top-dose-only effect; inactive = flat fitted curve, though single readings scatter. A potency beside an inconclusive call is a rough fit, not a confirmed value.

Each molecule was assayed against Luciferin 4-monooxygenase (Photinus pyralis) (UniProt P08659) (assay: qHTS profiling assay for firefly luciferase inhibitor/activator using purifed enzyme and Km concentrations of substrates (counterscreen for miR-21 project)). Settings: purified FLuc, luminescence inhibition; activity change, negative = inhibition: at 57.5 µM (top of the series).
Sequence of UniProt P08659 (P08659 whole entry, looked up): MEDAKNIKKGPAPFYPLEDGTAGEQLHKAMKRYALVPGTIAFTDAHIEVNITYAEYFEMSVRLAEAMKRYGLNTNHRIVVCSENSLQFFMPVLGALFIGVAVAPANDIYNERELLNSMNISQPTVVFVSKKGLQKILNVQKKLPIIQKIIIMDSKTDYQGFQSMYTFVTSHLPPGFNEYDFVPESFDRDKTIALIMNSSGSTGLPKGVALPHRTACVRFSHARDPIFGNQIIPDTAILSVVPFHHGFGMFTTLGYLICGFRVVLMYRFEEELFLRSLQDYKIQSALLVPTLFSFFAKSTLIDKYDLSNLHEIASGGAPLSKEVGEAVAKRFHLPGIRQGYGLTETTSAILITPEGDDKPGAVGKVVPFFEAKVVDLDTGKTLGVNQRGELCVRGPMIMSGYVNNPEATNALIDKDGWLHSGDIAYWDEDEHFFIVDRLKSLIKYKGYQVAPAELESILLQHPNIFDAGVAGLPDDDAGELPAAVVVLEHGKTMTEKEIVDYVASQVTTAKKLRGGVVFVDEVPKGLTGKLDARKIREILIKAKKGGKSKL
How it was run: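 Purified P. pyralis luciferase, 10 nM final, with Km-level 10 uM D-luciferin and 10 uM ATP in 50 mM Tris acetate pH 7.5, 10 mM Mg acetate, 0.01% Tween-20, 0.05% BSA; 6-point qHTS titration about 60 µM downward; luminescence read.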
Note: nearly all actives have a fitted effect of over 55% in size.
Potency is the fitted concentration of half-maximal effect; tags give direction and shape of the fitted curve.
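Throughout, for activity change, negative = inhibition: plate controls were vehicle for no effect and reference inhibitor for full effect.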

With `N=c1n(Cc2ccccc2Cl)c2ccccc2n1CC(O)c1ccco1` (configuration not stated) as the molecule, how does the Potency read?
The Potency was inconclusive: 0.0107 µM [inhibitor, partial curve, poor fit].

For `CCCCC(=O)Nc1cc(C)c2c(=O)oc3ccccc3c2n1`, which “activity change, negative = inhibition” value is on record?
Its value is inactive: -17.8%.

For `COc1cccc(C2=CC(=O)C[C@H](c3ccc4c(c3)OCO4)C2)c1OC`, which Potency is on record?
Its Potency is inconclusive: 12 µM [inhibitor, single point].

For `CCOC(=O)Cc1csc(NC(=O)c2ccc(NC(C)=O)cc2)n1`, which Potency is on record?
The Potency was inconclusive: 19 µM [inhibitor, partial curve].

How did the Potency turn out when `Cc1ccc(Cl)cc1Nc1nc2ccccc2n2c(C)nnc12` was run?
Its Potency is inconclusive: 21.3 µM [inhibitor, partial curve, poor fit].

With `CCOC(=O)c1cc(-c2ccccc2C)nn1Cc1cc(C)no1` as the molecule, how does the Potency read?
The Potency was inconclusive: 13.5 µM [inhibitor, partial curve].

How did the Potency turn out when `COc1ccc(NC(=O)c2cc(C(C)C)on2)cc1OC` was run?
The Potency was inconclusive: 23.9 µM [inhibitor, partial curve].

`COc1ccccc1OCC(=O)N/N=C/c1c(O)ccc2ccccc12` was tested. Which Potency did it give?
The Potency was inconclusive: 26.9 µM [inhibitor, single point].

Which Potency does the source give for `O=C(NNc1ncnc2c1cnn2-c1ccccc1)c1cccc(Cl)c1` here?
The Potency was inconclusive: 26.9 µM [inhibitor, single point].

Which Potency does the source give for `Cc1ccc(-c2cc(C(=O)N/N=C/c3c[nH]c4ccccc34)n[nH]2)o1` here?
The Potency was active: 10.7 µM.

For `CCOC(=O)C1(Cc2ccc(OC)cc2)CCN(C(=O)CCn2cccn2)CC1`, which Potency is on record?
The Potency was inconclusive: 26.9 µM [inhibitor, partial curve, poor fit].

`CSc1nsc(SCC(=O)Nc2ccc(Br)cn2)n1` was tested. Which Potency did it give?
Its Potency is inconclusive: 19 µM [inhibitor, partial curve, poor fit].

How did the Potency turn out when `O=S1(=O)N=C(N/N=C/c2cccs2)c2ccccc21` was run?
The Potency was inconclusive: 21.3 µM [inhibitor, partial curve, poor fit].

How did the Potency turn out when `Oc1ccc2ccccc2c1CNc1ccc(Br)cn1` was run?
Its Potency is active: 23.9 µM.

With `CCOc1ccc(NC(=O)CN2C(=O)COc3ccc(S(=O)(=O)Nc4ccccc4)cc32)cc1` as the molecule, how does the Potency read?
Its Potency is inconclusive: 37.9 µM [inhibitor, partial curve, poor fit].

`Cc1ccc(Cl)cc1NC(=O)Cn1nc2c(cc1=O)CC(C)CC2` (configuration not stated) was tested. Which “activity change, negative = inhibition” value did it give?
The value was inactive: -1.8%.

`Cc1cc(C(=O)CSc2nncs2)c(C)n1-c1ccc2c(c1)OCO2` was tested. Which Potency did it give?
The Potency was active: 19 µM.

With `COc1ccc(CNC(=O)COc2ccccc2C(=O)c2cnn(-c3ccccc3)c2)cc1OC` as the molecule, how does the Potency read?
Its Potency is active: 5.36 µM.

For `COc1ccc(CCNC(=O)c2cccc(NC3=NC4CS(=O)(=O)CC4S3)c2)c(OC)c1` (configuration not stated), which Potency is on record?
The Potency was inconclusive: 30.1 µM [inhibitor, single point].

`CC(C)Oc1ccc(C(=O)NCCCNC(=O)c2ccccn2)cc1` was tested. Which Potency did it give?
Its Potency is inconclusive: 42.6 µM [inhibitor, partial curve, poor fit].

For `CN(C)c1ccc(NC(=O)COC(=O)c2cc(Cl)ccc2[N+](=O)[O-])cc1`, which Potency is on record?
Its Potency is inconclusive: 30.1 µM [inhibitor, single point].

How did the Potency turn out when `COc1ccc(C(=O)Cn2cnc3ccccc3c2=O)cc1` was run?
The Potency was active: 13.5 µM.

How did the Potency turn out when `CCc1cc(C(=O)COc2ccc(F)cc2)c(O)cc1O` was run?
Its Potency is inconclusive: 26.9 µM [inhibitor, partial curve].

For `Cc1c(CCC(=O)O)c(=O)oc2c(C)c3occ(-c4ccc(Cl)cc4)c3cc12`, which Potency is on record?
The Potency was inconclusive: 19 µM [inhibitor, partial curve, poor fit].

`O=C(NC(=S)Nc1cccc([N+](=O)[O-])c1)c1ccccc1` was tested. Which Potency did it give?
The Potency was inconclusive: 30.1 µM [inhibitor, single point].

With `CC(NC(=O)C(=O)NN=C1CCCCCCC1)c1ccccc1` (configuration not stated) as the molecule, how does the “activity change, negative = inhibition” value read?
The value was inactive: 2.38%.

With `Cc1ccc(-c2cc(C(=O)Nc3ccc4c(c3)OCCO4)c3ccccc3n2)cc1` as the molecule, how does the Potency read?
Its Potency is active: 9.53 µM.

With `Cc1cc(C)n(C(=O)c2cc(F)c(F)cc2C)n1` as the molecule, how does the Potency read?
The Potency was inconclusive: 23.9 µM [inhibitor, partial curve, poor fit].

How did the Potency turn out when `O=C(NCCNc1ccc(Cl)cc1[N+](=O)[O-])c1ccccc1F` was run?
Its Potency is inconclusive: 12 µM [inhibitor, partial curve, poor fit].

With `COc1cc(OC)c(OC)cc1CNC(=O)c1ccc(COc2ccccc2)cc1` as the molecule, how does the “activity change, negative = inhibition” value read?
The value was inactive: -11.5%.

Which “activity change, negative = inhibition” value does the source give for `Cc1nn(-c2ccccc2)c(Cl)c1C(=O)N1CCN(c2ncnc3c2cnn3-c2ccccc2)CC1` here?
Its value is inactive: -1.39%.

Which Potency does the source give for `CN1CCN(/N=C/c2nc(-c3ccccc3)n3ccccc23)CC1` here?
The Potency was inconclusive: 23.9 µM [inhibitor, partial curve, poor fit].

For `CCc1sc(C(=O)Nc2ccc(F)cc2C)cc1C`, which Potency is on record?
The Potency was inconclusive: 15.1 µM [inhibitor, partial curve].

For `COc1cc(NC(=O)c2c(OC)cccc2OC)ccc1NC(=O)c1cc2ccccc2o1`, which Potency is on record?
The Potency was inconclusive: 10.7 µM [inhibitor, partial curve].

Which Potency does the source give for `Cc1cc(C)c2c(=O)cc(C(=O)Nc3ccc(S(=O)(=O)Nc4nc(C)cc(C)n4)cc3)oc2c1` here?
The Potency was inconclusive: 26.9 µM [inhibitor, partial curve, poor fit].

How did the “activity change, negative = inhibition” value turn out when `Cc1ccc2c(c1)N(C(=O)CCC(=O)NC1CCCCCC1)CC(C)O2` (configuration not stated) was run?
The value was inactive: -1.5%.

How did the Potency turn out when `O=C(CCn1cccn1)Nc1ccc2c(c1)OCO2` was run?
The Potency was inconclusive: 37.9 µM [inhibitor, single point].

With `COc1ccc(CC(=O)NCC(=O)N=Nc2c(O)[nH]c3ccccc23)cc1` as the molecule, how does the “activity change, negative = inhibition” value read?
The value was inactive: 1.91%.

How did the Potency turn out when `O=C(CSCc1ccc(F)cc1)Nc1ccc(F)cc1` was run?
Its Potency is inconclusive: 37.9 µM [inhibitor, partial curve, poor fit].

How did the Potency turn out when `CN1CCN(C(=O)c2ccccc2NC(=O)c2sc3ccccc3c2Cl)CC1` was run?
Its Potency is inconclusive: 26.9 µM [inhibitor, single point].

With `O=C(OCC1COc2ccccc2O1)c1c(F)cccc1F` (configuration not stated) as the molecule, how does the Potency read?
The Potency was active: 15.1 µM.

How did the “activity change, negative = inhibition” value turn out when `COc1ccccc1C(=O)Nc1ccnn1C1CCN(Cc2ccc3nonc3c2)CC1` was run?
The value was inactive: -13.9%.

For `CC(=O)Nc1ccc(C2=NNC(=Nc3ccc(S(=O)(=O)N4CCOCC4)cc3)SC2)cc1`, which Potency is on record?
Its Potency is inconclusive: 37.9 µM [inhibitor, partial curve, poor fit].

Which Potency does the source give for `O=C(OCC(=O)N1CCCC1)c1ccccc1O` here?
Its Potency is active: 15.1 µM.

`CC(=O)c1cccc(NC(=O)N2CCCc3ccccc32)c1` was tested. Which Potency did it give?
The Potency was inconclusive: 26.9 µM [inhibitor, single point].

How did the Potency turn out when `Cc1ccc(-c2nc(C)c(C(=O)O)s2)cc1` was run?
Its Potency is active: 4.78 µM.

Which Potency does the source give for `Cc1ccc(OCc2ccccc2Br)c([N+](=O)[O-])n1` here?
Its Potency is inconclusive: 23.9 µM [inhibitor, single point].

Which Potency does the source give for `O=C1c2ccccc2C(=O)C1c1ccccn1` here?
The Potency was active: 10.7 µM.

Which Potency does the source give for `CC(C)c1nnc(NC(=O)C2CCCN2C(=O)Nc2ccccc2[N+](=O)[O-])s1` (configuration not stated) here?
Its Potency is inconclusive: 13.5 µM [inhibitor, partial curve, poor fit].

`O=c1c(-c2nc3ccccc3s2)cccn1Cc1ccccc1` was tested. Which Potency did it give?
The Potency was active: 2.69 µM.

With `Cc1c(F)cccc1NS(=O)(=O)c1cccs1` as the molecule, how does the “activity change, negative = inhibition” value read?
The value was inactive: -18.2%.

For `Cc1cc(OC(C)C(=O)N2CCN(CCc3ccccn3)CC2)ccc1Cl` (configuration not stated), which “activity change, negative = inhibition” value is on record?
Its value is inactive: 3.52%.

For `CCOc1ccccc1N1CC(c2nc3ccccc3n2CCCOc2ccccc2)CC1=O` (configuration not stated), which Potency is on record?
Its Potency is inconclusive: 37.9 µM [inhibitor, single point].

With `COc1ccc(/C=N/NC(=O)c2ccn[nH]2)cc1COc1ccc(Cl)cc1` as the molecule, how does the Potency read?
The Potency was inconclusive: 23.9 µM [inhibitor, partial curve].

For `CC1CCN(S(=O)(=O)c2ccc3c(c2)N(CC(=O)NCCCN2CCCC(C)C2)C(=O)CO3)CC1` (configuration not stated), which “activity change, negative = inhibition” value is on record?
Its value is inactive: 2.53%.

For `CC(C)Oc1cccc(OCCN2C(=O)c3ccccc3C2=O)c1`, which Potency is on record?
The Potency was inconclusive: 23.9 µM [inhibitor, single point].

How did the Potency turn out when `CCOc1ccccc1NC(=O)c1cc(CC(C)C)oc1C` was run?
The Potency was inconclusive: 16.9 µM [inhibitor, partial curve].

How did the “activity change, negative = inhibition” value turn out when `CC1CC(=O)Nc2ccccc2N1S(=O)(=O)c1ccc(F)cc1F` (configuration not stated) was run?
The value was inactive: -0.181%.

How did the Potency turn out when `NNC(=O)c1cc2c(s1)CCCCCC2` was run?
The Potency was inconclusive: 26.9 µM [inhibitor, partial curve, poor fit].

With `Fc1ccc(-c2nc(-c3cccs3)no2)cc1` as the molecule, how does the Potency read?
The Potency was active: 1.35 µM.

`CCOC(=O)c1sc2ncn(CC(=O)Nc3cccc(C)c3)c(=O)c2c1C` was tested. Which “activity change, negative = inhibition” value did it give?
The value was inactive: 0.999%.

For `O=C(NCc1ccccc1Cl)c1ccc2c(c1)N(Cc1ccccc1)C(=O)c1ccccc1S2`, which “activity change, negative = inhibition” value is on record?
Its value is inactive: 0.133%.

For `CCN(CC)c1ccc(/C=N/O)cc1`, which Potency is on record?
Its Potency is inconclusive: 26.9 µM [inhibitor, single point].

`CCc1cccc(NC(=O)c2cc(-c3ccccc3)n[nH]2)c1` was tested. Which Potency did it give?
The Potency was inconclusive: 1.2 µM [inhibitor, full curve].

How did the Potency turn out when `NC(=O)N/N=C/c1cn(-c2ccccc2)nc1-c1cccs1` was run?
Its Potency is active: 2.13 µM.

How did the Potency turn out when `COc1cccc(C(c2sc3nc(-c4ccco4)nn3c2O)N2CCCC2)c1` (configuration not stated) was run?
The Potency was inconclusive: 15.1 µM [inhibitor, partial curve, poor fit].

With `Oc1ccc(Nc2nc(-c3ccc(O)cc3)cs2)cc1` as the molecule, how does the Potency read?
Its Potency is active: 7.57 µM.

For `COc1ccc(CC(=O)Oc2ccc(C)cc2Br)cc1S(=O)(=O)N1CCOCC1`, which “activity change, negative = inhibition” value is on record?
The value was inactive: 3.6%.

For `O=C(Nc1cccc(-c2nn[nH]n2)c1)c1ccc(Br)s1`, which Potency is on record?
Its Potency is active: 12 µM.

`CCOc1cccc(-c2cc(C(=O)Nc3ccon3)c3ccccc3n2)c1` was tested. Which Potency did it give?
Its Potency is inconclusive: 23.9 µM [inhibitor, partial curve].

For `COc1ccc(NC(=O)c2c(NCc3cccs3)sc3c2CCCCC3)cc1`, which Potency is on record?
Its Potency is inconclusive: 16.9 µM [inhibitor, partial curve].

`COc1cc(OC)cc(C(=O)NCCc2csc(-c3cccc(C)c3)n2)c1` was tested. Which Potency did it give?
Its Potency is inconclusive: 37.9 µM [inhibitor, partial curve, poor fit].
